# Measurements: the supplement of paper PMC10126150
# Values marked as one replicate rest on one cluster of the flow cell; about a third of the high ones do not repeat.
# System: ATP
# Assay: switch fluorescence ratio, 500 uM ATP over buffer (Cy3 cluster intensity, sum of 5 cycles each) (fold (ratio)); higher = stronger signal-on switching upon ATP binding; sequences stand for … in TCGTCGGCAGCGTCAGATGTGTATAAGAGACAGTTTTTTTTTTTTTTTTTTTTTTTTT…TC
# Conditions: aptamer strand: ATP DNA aptamer (quencher-CACCTGGGGGAGTATTGCGGAGGAAGG + anchor), 100 nM annealed; ATP concentration: 500 uM; one replicate
# How it was run: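 Per cluster, summed Cy3 intensity from the target cycles was divided by that from the buffer cycles to give the fluorescence ratio, then averaged per switch-domain sequence. Clusters outside 100-1000 RFU were excluded. The Cy3-labelled switching-strand clusters, on a modified Illumina MiSeq flow-cell, were annealed to 100 nM quencher-labelled ATP aptamer and imaged in selection buffer, then after 15 min with 500 uM ATP at 22 °C, for five cycles with NaOH stripping and re-annealing between them.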
# 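Note: ATP exposure 15 min at 22 °C before imaging.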
row,Sequence,switch fluorescence ratio
1,CGATCTCCAG,1.04
2,GGACCTAGTT,1.02
3,CAATTCTCGG,1.04
4,CGTAGCGGAG,1.08
5,TTTTCGCACA,1.44
6,AAAGAATCGG,0.963
7,CCCATGATCG,0.969
8,AGCTTGCGTG,0.965
9,ACGCATTCCC,2.56
10,CATAGTGGTG,0.998
11,AGGACAACGA,1.01
12,GCGTACAGTT,1
13,TCGCGCATTT,1.08
14,TGATCCATCC,1.1
15,TGTTTAGTAG,1.02
16,TTAAAATTCC,1.16
17,GCAAAGGTAA,0.972
18,GATGTGTGG,1.01
19,TTCCTTTGTT,1.01
20,GGTTGTCTAG,0.969
21,GACATTCGG,1.01
22,CGTCCCACGC,1.23

row,Sequence,switch fluorescence ratio
1,ATTTTGTGAA,0.967
2,GGTCATAACA,1.04
3,AGCGGGCTG,0.99
4,CGTGTCTC,1.01
5,GAATGGGAGC,0.988
6,GGTGGGGCAT,0.989
7,ATAATTAACT,1.01
8,CCTTTCTGTT,1.06
9,GCATTCGTCA,0.939
10,TGCTTTCATC,1.01
11,CGACTCGATA,1.54
12,GCCGGTGGGG,1.04
13,CTAATGCATC,1.09
14,GTTATTCAAG,1
15,CTTTTACAAC,0.999
16,AGGGGAGGTT,1.01
17,AGTTTTAATC,0.988
18,GCCCTTCTG,1.02
19,TAAATCGTTT,0.994
20,CAAAGCAGGT,1.08
21,TTAGGCTCGA,0.97
22,GACTACTATT,1.09

row,Sequence,switch fluorescence ratio
1,TGAGACGCGT,0.964
2,TTCTAGGCGT,0.986
3,GCAAGTTTAG,0.988
4,CGGCTATA,1.1
5,TATCAAGTCC,0.981
6,TCGAAAATTT,1
7,AAATGTACAT,1.04
8,ACTCACTCAT,1.22
9,GATATCGGTT,0.955
10,GCTTACACGG,1.06
11,TCTTGAGGCT,0.989
12,CCTACAGGGT,1.1
13,CGTAGAAGTC,1.03
14,CGAGTTCTCG,0.982
15,GGTGTATCCA,0.998
16,GGTAGGCTCG,0.949
17,ATGTAGTGCT,1.01
18,CTCAGGTCTA,1.04
19,GATTAAGGGA,1.01
20,GGTTACAAAA,1.02
21,ATCCGTATGA,1.04
22,AGCAGTATAG,1.03

row,Sequence,switch fluorescence ratio
1,AAGCCAGGAG,1.14
2,TCGGGAGCGG,0.996
3,GGCAGGCAGG,1.03
4,TCGATGTCCA,0.985
5,TTCAACCTGG,1.05
6,ATGATAAGTG,1.06
7,TCGGCTTAGA,1.03
8,GGCTAATAAA,0.989
9,TACCCTGAG,1.13
10,ATTTAGAGAG,1.01
11,TGCGATTGGC,0.969
12,GGCGATCTGG,1.02
13,GGTTAATGT,0.994
14,CGATGTGCG,0.945
15,CAAAATTAG,0.994
16,CTCTAGTTTT,0.944
17,TGCTGTTATA,1.02
18,CCCCGTGGTT,1.4
19,GCCACGCCG,1.2
